The supplement of paper PMC11417369
± gives the standard deviation of the averaged measurements. The list shows a part of the results.

The sequences below were run on PfAP2-LT AP2 domain (GST-tagged) (assay: gcPBM binding intensity (ln(normalized median fluorescence intensity)); higher = stronger DNA binding).
In short: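 After 1 h on an Agilent 4 × 180k array of primer-extended double-stranded 36-bp intergenic genomic probes and negative controls, bound GST-tagged P. falciparum DNA-binding domains were detected with Alexa488 anti-GST antibody and scanned at 488 nm. The domains had been expressed in E. coli, and binding took place in 1× PBS with 1% milk, 0.2 mg/ml BSA, 0.5% salmon testes DNA and 0.03% Triton X-100. Binding intensity is the highest Masliner-normalised natural-log median intensity across replicate spots of either probe orientation.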

Sequence	gcPBM binding intensity (ln)
AAAATCTAGGTATTTATACACACTAATATAATATAC [CACACA_site8108]	8.78 ± 0.43
TATATATTTGTGAAAATATTAAAATAAATAAATAAA [CACACA_negctrl_site295]	8.39 ± 0.44
AAGTTCAAAATAAATGGTACAGAAGTATATATATCA [XGTACX_site174]	8.83 ± 0.51
TAAAAAAAGAGATATTGTACACAAAAAAATTTTACT [XGTACX_site1342]	8.64 ± 0.44
TAGAAAAAAAAATACATACACACAATATATTTATTT [CACACA_site3123]	8.82 ± 0.48
CTCAAATAACTTTTTACACACATTATTTGAAATAAG [CACACA_site6722]	8.79 ± 0.38
ATATGAATGATCGTACGTACTTACATATTTATAAAG [XGTACX_site8041]	8.78 ± 0.4
CAGAATACATACATTACACACAAATTTAAGTATATA [CACACA_site1781]	9.08 ± 0.47
TCTTACACTAATAAATGTACATACAAAAAATCTATT [XGTACX_site1379]	8.56 ± 0.38
AATTTGAATATTTGATGTACAAAGTTTTTTAATGTT [XGTACX_site3249]	8.57 ± 0.52
TACCCACTAAAATACACACACACACCCACATATATA [CACACA_site6141]	10 ± 0.42
GTACCAACAGCACTACTTCTCGCCATTTTCTTGTAG [XGTACX_negctrl_site97]	8.97 ± 0.44
GAGAGGATAGTTCACAGTACCCAGTAACTCTACGGA [XGTACX_site4876]	8.81 ± 0.54
ATAAATATAACATATTGTACCCTTAAAAAGGAACAA [XGTACX_site352]	8.6 ± 0.4
AATACATGAACTTAAAGTACTAAAAAAAAAATAATA [XGTACX_site1956]	8.76 ± 0.57
AGGAAAATAATTAAAGCATGCTCATTATGAAATATA [TGCATGCA_site855]	8.73 ± 0.47
ACAAATAAAAAAATTACACACATATAAAATATAGAT [CACACA_site6756]	9.06 ± 0.4
TATGAGAACAAACATTGTACAATAAAAAGTAGATAT [XGTACX_site920]	9.13 ± 0.51
CATATAAGAATCTTCTGTACTTATAAGAAAAGACAT [XGTACX_site8135]	8.62 ± 0.46

Sequence	gcPBM binding intensity (ln)
ATGTAATATGTTCATGCATGTAAAATTACATTTAGA [TGCATGCA_site852]	8.78 ± 0.42
AAAAAAAAAAAAACAACACACAATGTTTTATTTTAC [CACACA_site1613]	8.82 ± 0.41
TAAAACAAAATAACATGTACAAAAAAAAAAAAAAAA [XGTACX_site2915]	8.56 ± 0.52
ATACACAAATGCATACGTACATATATATATATATAT [XGTACX_site3504]	9.87 ± 0.16
TATATATATATATATGTGCACATTTATTGCCTTTGC	10.11 ± 0.071
TATAAATAAAGACTTTTTTCTAACTTTTTTTTGTAT [CACACA_negctrl_site1015]	8.44 ± 0.55
TAAGTATATTTCTGCACACAAAAAAAAAAACCAAAA [CACACA_site4056]	9.08 ± 0.41
AAAATTTAATATGAATGTACATAAAAAAAAAAAAAA [XGTACX_site6719]	8.69 ± 0.38
ATATCTATAATAAACACACAAATAGATATAACATAT [CACACA_site7702]	9.03 ± 0.4
AAAAAAAAATTAAAAACACACATATATATATATATA [CACACA_site1580]	9.73 ± 0.014
AATGAAACAATACCCAGTAAAAAAAAAAAATAAATA [TGCATGCA_negctrl_site205]	8.87 ± 0.55
ATATTTTTTTTCTTCACACACATGAGTTATAAATAA [CACACA_site7498]	8.97 ± 0.51
TGTAATCTGGAGAAGAGTACACAGTATCTGGTAGCT [XGTACX_site4935]	8.87 ± 0.37
ATATATAATATAATATGTACATATAATCAATCCTGT [XGTACX_site8694]	8.97 ± 0.33
ATTTAGTATTCGAAACGTACACATATATATATATAT [XGTACX_site3910]	9.59 ± 0.33
AAGGTAAAATATAAGTGTACTTTTTCTTAATCTTCG [XGTACX_site514]	8.57 ± 0.57
TAATATTTATATAATTGTACTTTGTTTGTAAATCCA [XGTACX_site7292]	8.53 ± 0.43
GGACGTATTAAAAGGCGTACACTAAATATTTTATGT [XGTACX_site146]	8.87 ± 0.47
ATTATAATTTTGTAAAGTACATATTATTATATATTA [XGTACX_site7191]	8.49 ± 0.46

Sequence	gcPBM binding intensity (ln)
AAGATAATTACGCACACACACACACGCCCACAACTA [CACACA_site7255]	10.4 ± 0.12
TATTTATATAATCCTATAATATTACTACTATCTTTA [GTGCAC_negctrl_site342]	8.68 ± 0.47
TGATAACTAAATACATGTACAAATTAAAAAGAAAAA [XGTACX_site3080]	8.86 ± 0.38
TAATGATTATATGACTGTACATTTGTAGGTATAATT [XGTACX_site3373]	8.77 ± 0.33
TTATTTTTTTCAACAAGTACTAATACAAAATAAAAC [XGTACX_site6460]	8.32 ± 0.47
TTGTATTATTAAATTATAAAACCTATAATTATGGAT [GTGCAC_negctrl_site340]	8.35 ± 0.45
GATTAAATCGATAATACACACTAAATGTAAAACATT [CACACA_site4248]	8.95 ± 0.45
TTTAATTAATAATAATATAAATTGTTCTTTTTTTTT [GTGCAC_negctrl_site176]	8.04 ± 0.56
CATATTTATAAATATAAACACACAACATTATATGCA [CACACA_site9065]	8.88 ± 0.4
GCAAAATAAAGAAGCACACAAAAATGAAATATATAT [CACACA_site3651]	9.22 ± 0.44
TATACGTAATAATATGCACACAAATAAACTTTATAA [CACACA_site9166]	9.02 ± 0.38
ATTTATATATATCATACACACTAATATGTATATTAT [CACACA_site5816]	8.97 ± 0.34
ACTAGTAAATTTATATGTACATATATATATATATAG [XGTACX_site2502]	8.97 ± 0.4
AAAAAAAATACATACATACACACATATATATATATA [CACACA_site912]	9.685 ± 0.05
TCTTGGTATATTCAATATATGATTTATATAATTCAA [CACACA_negctrl_site818]	8.55 ± 0.34
AATAATTTGAAGGTGATAGTATTACATGGGAAATCA [CACACA_negctrl_site301]	8.7 ± 0.45
ACTCTCTTATATTAAACACACATATATATATGTATA [CACACA_site2703]	8.99 ± 0.42
TCAAACAAAAAAGAAACACACACTAATTAAATTTTC [CACACA_site1101]	9.04 ± 0.34
